The source of these data is PubChem BioAssay AID1963576 (National Center for Advancing Translational Sciences (NCATS), 2024).

In all, about 46,000 compounds went through this assay and about 60 (0.1%) were called active. Another 3% or so got no clear call; they are omitted. The call rests on the fitted dose curve; in most records, active means well fitted inhibition curve with a large enough effect; inconclusive means small, poorly fitted or top-dose-only effect; inactive means no such curve, though single readings can be large or run the other way. The list shows a part of the results.
Potency means the concentration at half of the fitted maximal effect.

This experiment can be described thus: Primary qHTS assay for Inhibitors of ovarian cancer metastasis using an organotypic tumor microenvironment (TME) model. Further: nearly all actives have a fitted effect of over 65% in size.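 On Potency: count of GFP cancer cells still attached after washing and fixation.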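 On activity change, negative = inhibition: plate controls were DMSO wells for no effect and tomatine positive control wells for full effect.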 Particulars: SKOV3ip1-GFP adhesion/invasion on 3D omental model, fluorescence; series mostly up to 45.8 µM; activity change, negative = inhibition: at the top concentration. In outline:
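Primary human omental fibroblast/mesothelial 3D culture pre-formed 48 h. SKOV3ip1-GFP cells added with compounds (0.36-46 umol/L), incubated 2 h RT/16 h 37 C, fixed; GFP cells quantified at 488/509 nm.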
Consider `Cc1ccccc1NS(=O)(=O)c1nnc(NC(=O)c2ccccc2C)s1`, for which the result was inactive.

As to `CCN(C(=O)c1cc2c(s1)-c1ccccc1OC2)c1cc(Cl)ccc1OC`, the “activity change, negative = inhibition” value is inactive: -25.2%.

`CCOC(=O)c1ccc(Nc2ncnc3c2cnn3-c2cccc(Cl)c2)cc1`: the “activity change, negative = inhibition” value was inactive: 12.6%.

Turning to `CC1Cc2cc(S(=O)(=O)NCc3ccccc3Cl)ccc2N1C(=O)C1CCC1` (stereo not drawn), the “activity change, negative = inhibition” value was inactive: -21.9%.

Turning to `Cc1ccc(NC(=O)N2CCc3cc(S(=O)(=O)N4CCC(C)CC4)ccc32)cc1C`, the result was inactive.

In the case of `Cc1ccc(-c2nc(-c3cc4cccc(OCc5cccc(C)c5)c4oc3=O)no2)cc1`, the result was inactive.

In the case of `CCN(CC)c1ccc(C(=O)N2CCC(c3c[nH]c4ccccc34)(c3c[nH]c4ccccc34)CC2)cc1`, the result was inactive.

For the compound `CCOC(=O)c1ccc(NC(=O)c2ncn(-c3ccccc3)n2)cc1`, the “activity change, negative = inhibition” value was inactive: -4.2%.

For `CC(NC(=O)Nc1cc(Cl)ccc1Cl)c1c(-n2cccc2)sc2c1CCCC2` (stereo not drawn), the “activity change, negative = inhibition” value was inactive: 11.2%.

`COc1ccc(N2CCN(C(=O)CCn3c(=O)c4cccn4c4cccnc43)CC2)cc1`: the “activity change, negative = inhibition” value was inactive: 1.26%.

Regarding `Cc1ccc(CNC(=O)c2ccc(-n3cnc4cccnc43)cc2)cc1`, the call was inactive.

In the case of `O=C(c1ccc2c(c1)N(Cc1ccccc1F)C(=O)c1ccccc1S2=O)N1CCN(c2ccccc2)CC1` (stereo not drawn), the outcome was inactive.

`CCc1ccc(NC(=O)Cn2c3ncccc3c(=O)n2-c2ccc(C)c(C)c2)cc1`: the compound was called inactive.

For `Cc1ccc(NC(=O)/C(C#N)=C/c2cc(C)n(-c3ccc(F)cc3)c2C)cc1C`, the “activity change, negative = inhibition” value was inactive: -4.36%.

`CCc1c(C)nc2nncn2c1Nc1ccc(C(C)C)cc1`: the “activity change, negative = inhibition” value was inactive: 0.317%.

With `O=C(Cc1ccccc1)Nc1sc2c(c1C(=O)Nc1ccc(Cl)cc1)CCCC2`, the “activity change, negative = inhibition” value is inactive: 0.835%.

Take `O=C(NCCc1csc(-c2cccc(F)c2)n1)c1cccs1`: the “activity change, negative = inhibition” value was inactive: -6.07%.

With `CCOc1ccc(NC(=O)c2ccc(-c3nc(COc4ccccc4)c(C)o3)cc2)cc1`, the “activity change, negative = inhibition” value was inactive: -3.18%.

For the compound `Cc1cccc(NC(=O)CSc2nc3c([nH]c4ccccc43)c(=O)n2C)c1C`, the compound was classed as inactive.

`N#C/C(=C\c1ccc(Cl)cc1)c1nc2ccccc2[nH]1`: the “activity change, negative = inhibition” value was inactive: 16.9%.

Take `CCOc1ccccc1NC(=O)C1CCN(S(=O)(=O)c2ccccc2)CC1`: the “activity change, negative = inhibition” value is inactive: -7.34%.

For the compound `CCOc1ccc(S(=O)(=O)N2CCN(c3c(C)cccc3C)CC2)c2ccccc12`, the outcome was inactive.

In the case of `COc1ccc(-c2nc(SCC(=O)Nc3ccc4c(c3)OCO4)c(-c3ccc(OC)cc3)[nH]2)cc1`, the “activity change, negative = inhibition” value was inactive: -12.1%.

As for `CN(C(=O)CSc1nc2c(c(=O)[nH]1)CCCC2)c1ccccc1`, the “activity change, negative = inhibition” value is inactive: 0.683%.

As to `CCOC(=O)c1ccc(NS(=O)(=O)c2ccc(Br)s2)cc1`, the “activity change, negative = inhibition” value is inactive: 1.06%.

For the compound `COc1ccccc1NC(=O)CSc1oc(-c2cccs2)nc1S(=O)(=O)c1ccc(Br)cc1`, the “activity change, negative = inhibition” value is inactive: 1.43%.

For the compound `CC(NC(=O)Nc1ccccc1C(F)(F)F)c1c(-n2cccc2)sc2c1CCCC2` (stereo not drawn), the “activity change, negative = inhibition” value is inactive: -0.164%.

In the case of `COc1ccccc1CNC(=O)Cn1ncc2c3ccccc3n(Cc3ccccc3C)c2c1=O`, the “activity change, negative = inhibition” value was inactive: -3.55%.

`COc1ccc(NCc2cc3cc4c(cc3n(CC(=O)Nc3ccc(C)cc3)c2=O)OCO4)cc1`: the “activity change, negative = inhibition” value is inactive: 22%.

With `Cc1cc(C)cc(OC(=O)c2snnc2C)c1`, the “activity change, negative = inhibition” value was inactive: -1.39%.

Take `CCOc1ccccc1Nc1cc(-c2ccccc2)nc(C)n1`: the “activity change, negative = inhibition” value is inactive: -11.3%.

Take `COc1ccc(NC(=O)CSc2nnc(-c3cccs3)o2)cc1`: the “activity change, negative = inhibition” value is inactive: 20.1%.

`COc1cc(Cl)c(C)cc1NC(=O)CSc1ncc(S(=O)(=O)c2ccc(C(C)(C)C)cc2)c(=O)[nH]1`: the “activity change, negative = inhibition” value was inactive: -2.01%.

On to `Cn1c2ccccc2c2c(C(=O)N3CCN(c4ccc(F)cc4)CC3)cn(C3CCCCC3)c(=O)c21`, for which the call was inactive.

For the compound `O=C1Nc2ccc(S(=O)(=O)Nc3ccccc3O)c3cccc1c23`, the “activity change, negative = inhibition” value is inactive: 3.64%.

Regarding `COc1cc(C(=O)Nc2ccc3oc(-c4ccccc4)nc3c2)cc(OC)c1OC`, the “activity change, negative = inhibition” value was inactive: -3.12%.

In the case of `COc1cc(NC(=O)Cn2ncc3c([nH]c4ccc(C)cc43)c2=O)cc(OC)c1OC`, the “activity change, negative = inhibition” value is inactive: -5.66%.

As to `c1ccc2c(-c3cnn4cc(-c5ccc(N6CCNCC6)cc5)cnc34)ccnc2c1`, the Potency is active: 23.5 µM.

Consider `CC(C)(Oc1ccc(C2CC2(Cl)Cl)cc1)C(=O)O` (stereo not drawn), for which the “activity change, negative = inhibition” value was inactive: 3.54% [at 92.2 µM].

Consider `CCOc1ccc(C2Nc3ccccc3-c3nnc(SCc4ccccc4)nc3O2)cc1OC` (stereo not drawn), for which the “activity change, negative = inhibition” value is inactive: 4.08%.

For `COc1ccc(-c2noc(CSCC(=O)Nc3cccc(C(F)(F)F)c3)n2)cc1OC`, the “activity change, negative = inhibition” value was inactive: -13.9%.

With `Cc1ccc(S(=O)(=O)CC(=O)Nc2sc3c(c2C#N)CCCCC3)cc1`, the “activity change, negative = inhibition” value was inactive: 3.1%.

In the case of `CC(C)CCN(Cc1ccco1)C(=O)c1cc2c(Cl)nc3ccccc3c2s1`, the compound was called inactive.

`Cc1ccccc1CNC(=O)C1CCCN(S(=O)(=O)N(C)c2ccc(F)cc2)C1` (stereo not drawn): the “activity change, negative = inhibition” value is inactive: 12.1%.

Take `CCOc1ccccc1NC(=O)Nc1nnc(N2CCCCCC2)s1`: the “activity change, negative = inhibition” value is inactive: 1.6%.

Consider `CCC(=O)N1CCc2cc(Br)cc(S(=O)(=O)CCC(=O)NCCc3ccc(Cl)cc3)c21`, for which the “activity change, negative = inhibition” value was inactive: 1.98%.

For `CCc1cccc(NC(=O)c2ccc(CN3C(=O)C(C)=C(c4ccc(OC)cc4)S3(=O)=O)cc2)c1`, the “activity change, negative = inhibition” value was inactive: -3.49%.

Take `CCCOc1ccc(-c2nn(-c3ccccc3)cc2C2NC(=O)NC(C)=C2C(=O)OC)cc1C` (stereo not drawn): the “activity change, negative = inhibition” value is inactive: -3.94%.
